Measurements published in PubChem BioAssay AID1745853 (National Center for Advancing Translational Sciences (NCATS), 2022).
“And” between values parts separate entries of the source, which are not always exact repeats. Equal values may be shown once. This is one part of the list. These are further read-outs of the screen, such as a control signal, another cell line or another target. No call is given for them.

Columns and labels:
Test in all cases: Primary Screen for Target Class Profiling of Small Molecule Inhibitors of Methyltransferases
[1] = molecular target: Glycine N-methyltransferase (Homo sapiens) (UniProt Q14749); conditions: purified enzyme, MTase-Glo SAH luminescence; measured here: GNMT inhibition; at 40 µM; stronger effect = lower value
Procedure, shortened: (§1)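 Each enzyme was reacted with SAM and its substrate, with compounds tested once at 40 uM; SAH formed was read by MTase-Glo luminescence.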

[2] = molecular target: Guanidinoacetate N-methyltransferase (Homo sapiens) (UniProt Q14353); conditions: purified enzyme, MTase-Glo SAH luminescence; measured here: GAMT inhibition; at 40 µM; stronger effect = lower value
Procedure, shortened: as §1

[3] = molecular target: Histamine N-methyltransferase (Homo sapiens) (UniProt P50135); conditions: purified enzyme, MTase-Glo SAH luminescence; measured here: HNMT inhibition; at 40 µM; stronger effect = lower value
Procedure, shortened: as §1

[4] = molecular target: Nicotinamide N-methyltransferase (Homo sapiens) (UniProt P40261); conditions: purified enzyme, MTase-Glo SAH luminescence; measured here: NNMT inhibition; at 40 µM; stronger effect = lower value
Procedure, shortened: as §1

[5] = molecular target: Phenylethanolamine N-methyltransferase (Homo sapiens) (UniProt P11086); conditions: purified enzyme, MTase-Glo SAH luminescence; measured here: PNMT inhibition; at 40 µM; stronger effect = lower value
Procedure, shortened: as §1
% is set by controls: 0 for no effect and ±100 for the full control effect.

SMILES: O=Nc1ccc2oc(=O)ccc2c1
- activity change, negative = inhibition [1]: -53%
- activity change, negative = inhibition [2]: 4.58%
- activity change, negative = inhibition [3]: -3.22%
- activity change, negative = inhibition [4]: -3.15%
- activity change, negative = inhibition [5]: 6.21%

SMILES: Cn1nc(C2CCN(C(=O)NCc3ccccc3)CC2)c2c1CCOC2
- activity change, negative = inhibition [1]: -0.563%
- activity change, negative = inhibition [2]: -2.43%
- activity change, negative = inhibition [3]: 0.256%
- activity change, negative = inhibition [4]: -5.32%
- activity change, negative = inhibition [5]: -0.301%

SMILES: CC(C)CCn1c(=O)c2ccccc2n2c(=O)n(CC(=O)NCc3ccccc3)nc12
- activity change, negative = inhibition [1]: -1.88%
- activity change, negative = inhibition [2]: 2.13%
- activity change, negative = inhibition [3]: 3.5%
- activity change, negative = inhibition [4]: -2.15%
- activity change, negative = inhibition [5]: -1.91%

SMILES: CCCCCC(=O)N1CC[C@@H](CC(=O)N(C)CC#N)[C@@H](CC)C1
- activity change, negative = inhibition [1]: -5.4%
- activity change, negative = inhibition [2]: -9.22%
- activity change, negative = inhibition [3]: -12.6%
- activity change, negative = inhibition [4]: -18.2%
- activity change, negative = inhibition [5]: 3.99%

SMILES: COCCCNC(=O)C1(C)Cn2nc(-c3ccccc3)cc2C(=O)N1Cc1cccc(OC)c1 (stereo not given)
- activity change, negative = inhibition [1]: 0.204%
- activity change, negative = inhibition [2]: -0.356%
- activity change, negative = inhibition [3]: 3.38%
- activity change, negative = inhibition [4]: -3.54%
- activity change, negative = inhibition [5]: -4.17%

SMILES: O=[N+]([O-])c1ccc(CSc2ncnc3c2ncn3[C@@H]2O[C@H](CO)[C@@H](O)[C@H]2O)cc1
- activity change, negative = inhibition [1]: -5.85%
- activity change, negative = inhibition [2]: 0.076%
- activity change, negative = inhibition [3]: -4.27%
- activity change, negative = inhibition [4]: -11.2%
- activity change, negative = inhibition [5]: -9.25%

SMILES: CCCCOc1ccccc1-c1cc2n(n1)CC(C)(C(=O)NC1CCCCC1)N(CCOC)C2=O (stereo not given)
- activity change, negative = inhibition [1]: 0.63%
- activity change, negative = inhibition [2]: 0%
- activity change, negative = inhibition [3]: 4.69%
- activity change, negative = inhibition [4]: 0.21%
- activity change, negative = inhibition [5]: -0.343%

SMILES: O=C(c1ccc(=O)[nH]n1)N1CCCC(c2ccn[nH]2)C1 (stereo not given)
- activity change, negative = inhibition [1]: -1.79%
- activity change, negative = inhibition [2]: -2.32%
- activity change, negative = inhibition [3]: -2.04%
- activity change, negative = inhibition [4]: -4.3%
- activity change, negative = inhibition [5]: -2.95%

SMILES: CC(=O)c1c(C)c2cnc(Nc3ccc(N4CCNCC4)cn3)nc2n(C2CCCC2)c1=O
- activity change, negative = inhibition [1]: 3.81%
- activity change, negative = inhibition [2]: 5.95%
- activity change, negative = inhibition [3]: 5.25%
- activity change, negative = inhibition [4]: -6.75%
- activity change, negative = inhibition [5]: 2.6%

SMILES: COc1cc(-c2ccc(O)cc2)c(OC)c(O)c1C1=CC(=O)OC1CC(=O)O (stereo not given)
- activity change, negative = inhibition [1]: -3.97%
- activity change, negative = inhibition [2]: -1.66%
- activity change, negative = inhibition [3]: 9.58%
- activity change, negative = inhibition [4]: -14.1%
- activity change, negative = inhibition [5]: -7.62%

SMILES: C1CCc2nnnn2CC1
- activity change, negative = inhibition [1]: -5.81%
- activity change, negative = inhibition [2]: 4.5%
- activity change, negative = inhibition [3]: -1.23%
- activity change, negative = inhibition [4]: -7.54%
- activity change, negative = inhibition [5]: 4.99%

SMILES: COc1ccc(C(=O)Nc2ccc3c(c2)CN(CCc2ccccc2)C(=O)C(C)O3)cc1OC (stereo not given)
- activity change, negative = inhibition [1]: -19.7%
- activity change, negative = inhibition [2]: 0.845%
- activity change, negative = inhibition [3]: -8.35%
- activity change, negative = inhibition [4]: -7.44%
- activity change, negative = inhibition [5]: -23.3%

SMILES: COc1ccc(CNC(=O)C2(C)Cn3cnc(C(=O)Nc4ccc(Cl)cn4)c3C(=O)N2C2CC2)cc1 (stereo not given)
- activity change, negative = inhibition [1]: -0.563%
- activity change, negative = inhibition [2]: 1.55%
- activity change, negative = inhibition [3]: 11.2%
- activity change, negative = inhibition [4]: -0.315%
- activity change, negative = inhibition [5]: 8.63%

SMILES: Clc1ccc2c(N3CCN(CCCN4CCN(c5ccnc6cc(Cl)ccc56)CC4)CC3)ccnc2c1
- activity change, negative = inhibition [1]: -8.57%
- activity change, negative = inhibition [2]: 2.06%
- activity change, negative = inhibition [3]: -2.58%
- activity change, negative = inhibition [4]: -5.93%
- activity change, negative = inhibition [5]: 5.61%

SMILES: Cc1ccc(C)c(N2C(=O)c3cc(C4CC4)nn3CC2(C)C(=O)NC2CCCCCC2)c1 (stereo not given)
- activity change, negative = inhibition [1]: -2.1%
- activity change, negative = inhibition [2]: 4.24%
- activity change, negative = inhibition [3]: -2.57%
- activity change, negative = inhibition [4]: -1.34%
- activity change, negative = inhibition [5]: 1.1%

SMILES: COC(=O)c1cc2n(n1)CC(C)(C(=O)NC1CCC(C)CC1)N(Cc1ccc(C)cc1)C2=O (stereo not given)
- activity change, negative = inhibition [1]: 4.79%
- activity change, negative = inhibition [2]: 1.41%
- activity change, negative = inhibition [3]: 8.42%
- activity change, negative = inhibition [4]: 2.43%
- activity change, negative = inhibition [5]: 4.38%

SMILES: Cc1ccc(-c2noc(-c3cccc(S(=O)(=O)N4CCN(c5cccc(C)c5)C(C)C4)c3)n2)cc1 (stereo not given)
- activity change, negative = inhibition [1]: 15.8%
- activity change, negative = inhibition [2]: 0%
- activity change, negative = inhibition [3]: 11.5%
- activity change, negative = inhibition [4]: 1.8%
- activity change, negative = inhibition [5]: 6.55%

SMILES: CN(C)S(=O)(=O)N1CCOCCNC(=O)[C@@H]2CCC[C@@H]21
- activity change, negative = inhibition [1]: -3.72%
- activity change, negative = inhibition [2]: -0.231%
- activity change, negative = inhibition [3]: 1.03%
- activity change, negative = inhibition [4]: -0.379%
- activity change, negative = inhibition [5]: 11.3%

SMILES: COc1ccc(-c2nc(-c3cc(C(F)(F)F)cc(C(F)(F)F)c3)n(Cc3ccc(C(N)=O)cc3)c2-c2ccc(OC)cc2)cc1
- activity change, negative = inhibition [1]: 3.26%
- activity change, negative = inhibition [2]: -36.2%
- activity change, negative = inhibition [3]: 2.02%
- activity change, negative = inhibition [4]: -52.6%
- activity change, negative = inhibition [5]: -12.6%

SMILES: CCN1C[C@H](C)n2c(c(O)c3c(=O)n(Cc4ccc(F)c(Cl)c4)nc(C(=O)NC)c32)C1=O
- activity change, negative = inhibition [1]: 3.74% and 3.95%
- activity change, negative = inhibition [2]: 6.59% and 7.42%
- activity change, negative = inhibition [3]: 15.3% and 11.4%
- activity change, negative = inhibition [4]: -9.22% and -8.84%
- activity change, negative = inhibition [5]: 2.66% and 4.29%

SMILES: Cc1ccc(N2C(=O)c3cc4occc4n3CC2(C)C(=O)NC2CCCCC2)cc1C (stereo not given)
- activity change, negative = inhibition [1]: -6.05%
- activity change, negative = inhibition [2]: 0%
- activity change, negative = inhibition [3]: 0.028%
- activity change, negative = inhibition [4]: 5.23%
- activity change, negative = inhibition [5]: -2.65%

SMILES: COc1ccc2cc(C(C)C(=O)Oc3ccc(C(N)=S)cc3)ccc2c1 (stereo not given)
- activity change, negative = inhibition [1]: -5.44%
- activity change, negative = inhibition [2]: -6.78%
- activity change, negative = inhibition [3]: 6.22%
- activity change, negative = inhibition [4]: -23.1%
- activity change, negative = inhibition [5]: -1.52%

SMILES: CCCCNC(=O)c1ccc2c(=O)nc3c(-c4ccc(OC)cc4)n[nH]n3c2c1
- activity change, negative = inhibition [1]: 1.14%
- activity change, negative = inhibition [2]: 0%
- activity change, negative = inhibition [3]: 8.24%
- activity change, negative = inhibition [4]: 8.29%
- activity change, negative = inhibition [5]: 3.47%

SMILES: CC(C)N1CCN(C(=O)c2cc3cn(C4CC4)cc3s2)CC1
- activity change, negative = inhibition [1]: -10.2%
- activity change, negative = inhibition [2]: -6.94%
- activity change, negative = inhibition [3]: -10.6%
- activity change, negative = inhibition [4]: -3.56%
- activity change, negative = inhibition [5]: -23.5%

SMILES: Clc1ccccc1CNCC1CCC(CNCc2ccccc2Cl)CC1 (stereo not given)
- activity change, negative = inhibition [1]: 3.46%
- activity change, negative = inhibition [2]: 15.5%
- activity change, negative = inhibition [3]: 0.955%
- activity change, negative = inhibition [4]: -9.52%
- activity change, negative = inhibition [5]: 0.676%

SMILES: CCOC(=O)c1cc2n(n1)CC(C)(C(=O)NC1CCCCCC1)N(c1ccc(F)cc1C)C2=O (stereo not given)
- activity change, negative = inhibition [1]: 9.91%
- activity change, negative = inhibition [2]: 2.1%
- activity change, negative = inhibition [3]: 6.65%
- activity change, negative = inhibition [4]: 10.6%
- activity change, negative = inhibition [5]: 5.07%

SMILES: CCN(CCCNC(=O)CCc1nnc2n(CC(C)C)c(=O)c3ccccc3n12)c1cccc(C)c1
- activity change, negative = inhibition [1]: -7.94%
- activity change, negative = inhibition [2]: 1.12%
- activity change, negative = inhibition [3]: 4.57%
- activity change, negative = inhibition [4]: -10.9%
- activity change, negative = inhibition [5]: 0.323%

SMILES: Cc1ccc(-c2n[nH]n3c2nc(=O)c2ccc(C(=O)NCc4ccccc4Cl)cc23)cc1
- activity change, negative = inhibition [1]: -10.3%
- activity change, negative = inhibition [2]: 0%
- activity change, negative = inhibition [3]: -3.58%
- activity change, negative = inhibition [4]: -8.28%
- activity change, negative = inhibition [5]: -7.56%

SMILES: O=C(O)c1cc(=O)c2c(Cl)cc(Cl)cc2[nH]1
- activity change, negative = inhibition [1]: -4.17%
- activity change, negative = inhibition [2]: 15.7%
- activity change, negative = inhibition [3]: 5.23%
- activity change, negative = inhibition [4]: 1.06%
- activity change, negative = inhibition [5]: 12.8%

SMILES: COc1cc(C(O)C2COC(c3ccc(OC4OC(CO)C(O)C(O)C4O)c(OC)c3)C2CO)ccc1O (stereo not given)
- activity change, negative = inhibition [1]: -0.809%
- activity change, negative = inhibition [2]: 2.54%
- activity change, negative = inhibition [3]: 10.1%
- activity change, negative = inhibition [4]: -8.93%
- activity change, negative = inhibition [5]: -3.31%
